PubChem BioAssay AID493208 (National Center for Advancing Translational Sciences (NCATS), 2011)
The campaign covered roughly 44,000 compounds. About 340 (0.77%) were called active. Roughly 5% stayed inconclusive and do not appear here. Calls come from the whole dose curve; as a rule, active = well fitted inhibition curve with a large enough effect; inconclusive = small, poorly fitted or top-dose-only effect; inactive = flat fitted curve, though single readings scatter. The list shows a part of the results.

Test: Acumen qHTS Assay for Inhibitors of the mTORC1 Signaling Pathway in MEF (Tsc2-/-, p53-/-) Cells: Sytravon;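 note: plate controls were DMSO for no effect and rapamycin for full effect; nearly all actives have a fitted effect of over 50% in size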
Conditions: phospho-rpS6 immunofluorescence/PI, 24 h; series mostly up to 38.3 µM; activity change, negative = inhibition: at the top concentration
Method in brief: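 Cell-based qHTS: Tsc2-/- p53-/- MEF, 24 h cpd, 37 °C; fix/perm, anti-phospho-S6 Alexa-488 + PI; Acumen 488 nm scan; pS6/PI ratio, % positive cells; rapamycin 7.5 nM = inhibition ref; PI count = viability.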

Activity change, negative = inhibition, inactive:
Cc1c(Cl)cccc1NC(=O)C(=O)NCCc1csc(-c2cccc(F)c2)n1 2.65%
COc1ccc(NC(=O)c2ccc(-c3cccc(Cl)c3C)o2)cc1 16.1%
COc1ccc(-c2[nH]c(-c3ccccc3)nc2SCC(=O)Nc2ccc3c(c2)OCO3)cc1 -16.9%
CCn1c(CN2CCCCC2)nc2cc(NC(=O)COc3ccc([N+](=O)[O-])cc3)ccc21 0.427%
CC(NC(=O)Cc1ccc(NC(=O)N2CCCCc3ccccc32)cc1)c1ccccc1 (stereo unspecified) 1.81%
COc1ccc(-c2nc(CSc3nc4ncccc4[nH]3)c(C)o2)cc1OC -2.52%
CCN1C(=O)c2ccccc2S(=O)(=O)c2ccc(C(=O)NCc3ccc(F)cc3)cc21 -8.65%
Cc1ccc(CNC(=O)CN2C(=O)COc3ccc(S(=O)(=O)N4CCC(C)CC4)cc32)cc1 7.41%
CSc1cccc(NC(=O)c2ccc3c(c2)CCCN3S(C)(=O)=O)c1 -3.12%
Cc1ccc(/C=C/C(=O)Nc2ccc(Cl)cc2Cl)cc1 2.15%
CCCCCCn1c(/C=C/c2ccccc2)nc2ccccc21 7.68%
COc1ccc(NC(=O)c2ccc3[nH]c(C)cc(=O)c3c2)cc1 3.15%
Cc1ccc(-n2cc(C(=O)OCc3ccc(Cl)cc3)c3ccccc3c2=O)cc1 -8.52%
Cc1ccc(NC(=O)Cc2coc3c(C)c(C)ccc23)c(C)c1 6.29%
Cc1ccc(C)c(NC(=O)CN(Cc2ccccc2)S(=O)(=O)c2ccc3nc(C)sc3c2)c1 1.28%
COC(=O)C1CCN(c2csc3ccc(C)cc3c2=O)CC1 -8.91%
CCN(CCCNC(=O)c1ccc(Sc2ccc(Cl)cc2)c(NC(C)=O)c1)c1cccc(C)c1 6.43%
CCc1nn(CCCC(=O)NCc2ccc(OC)c(OC)c2)c(=O)c2cc3occc3n12 1.55%
CN1c2ccccc2-c2nc(SCC(=O)Nc3ccccc3)ncc2S1(=O)=O -9.69%
COc1cc(C2Oc3nc(SC)nnc3-c3ccccc3N2C(C)=O)cc(Cl)c1OC (stereo unspecified) 0.707%
Cc1ccc(-n2ncc3c(NCc4ccccc4)ncnc32)cc1C -20.1%
Cc1cc(Br)ccc1NC(=O)c1sc2ncn(Cc3ccccc3Cl)c(=O)c2c1C 0.972%
O=C(CSc1oc(-c2ccco2)nc1S(=O)(=O)c1ccc(Br)cc1)c1ccc(Cl)cc1 -7.39%
CC1=C(C(=O)Nc2cccnc2)C(c2ccc(F)cc2)n2nc(SCc3ccccc3)nc2N1 (stereo unspecified) -22.6%
CCCNC(=O)Cn1nc(C)c2c(C)n(-c3ccccc3)nc2c1=O -0.429%
Cc1cccc(NC(=O)CCS(=O)(=O)c2cc(Br)cc3c2N(C(=O)C2CC2)CC3)c1C -0.571%
CC1CCN(S(=O)(=O)c2cccc(C(=O)N(C)C3(C)CCS(=O)(=O)C3)c2)CC1 (stereo unspecified) 5.3%
COc1cc(OC)c(NC(=O)CSc2nc3ccncc3[nH]2)cc1Cl 1.51%
CC(NC(=O)C1CCN(C(=O)N2CCOc3ccccc32)CC1)c1ccccc1 (stereo unspecified) 2.28%
CCCCNC(=O)CSc1nc2ccccc2nc1Cc1ccccc1 -0.721%
CC(C)CCNC(=O)c1ccc(NC(=O)N2CCCCc3ccccc32)cc1 -3.11%
Cc1ccc(N2CC(NC(=O)C3CCCC3)CC2=O)cc1 (stereo unspecified) -0.525%
COc1cccc(N2CCN(C(=O)Cn3ncc4c3-c3ccccc3OC4)CC2)c1 -3.03%
CCOc1ccc(Nc2c(S(=O)(=O)c3ccccc3)cnc3ccc(CC)cc23)cc1 -16.8%
Cc1ccc(C(=O)c2cn(CC(=O)Nc3ccc4c(c3)OCCO4)c3nc(C)ccc3c2=O)cc1 -5.15%
CSc1oc(-c2ccc(F)cc2)nc1S(=O)(=O)c1ccc(Br)cc1 -0.794%
CC(C)CC(NC(=O)C1CCC(C)CC1)C(=O)OCC(=O)c1ccc(Cl)cc1 (stereo unspecified) -3.19%
O=C(CSc1nc2ccccc2n1Cc1ccccc1)NCc1ccccc1 0%
Cc1cc(C)cc(OC(C)C(=O)Nc2nc3c(s2)CCCC3)c1 (stereo unspecified) -0.853%
COc1ccc(NC(=O)c2ccco2)cc1NC(=O)c1ccc(OC(C)C)cc1 -6.42%
CCOC(=O)c1ccc(NC(=O)C2CCCN(c3cnccn3)C2)cc1 (stereo unspecified) 2.04%
COc1cccc(/C=C(\C#N)c2nc3ccccc3c(=O)[nH]2)c1OC 1.09%
CCCC(C(=O)Nc1cc(C)c(Cl)cc1OC)N1Cc2ccccc2C1=O (stereo unspecified) 0.632%
COc1cc(NC(=O)Cn2cc(S(=O)(=O)N3CCC(C)CC3)c3ccccc3c2=O)cc(OC)c1OC 1.47%
CCOC(=O)C1=C(CNCc2ccc(Cl)cc2)NC(=O)NC1c1ccccc1 (stereo unspecified) 0.84%
CC(=O)N1c2ccccc2CC1C(=O)N1CCN(c2ccccc2F)CC1 (stereo unspecified) 10.1%
COc1ccc(CCNC(=O)Cn2nc(-c3ccc(Cl)cc3)ccc2=O)cc1OC 8.35%
CCOc1ccc(Nc2ncnc3onc(-c4ccc(Cl)cc4)c23)cc1 -14.2%
COc1cn(CC(=O)Nc2cccc(C)c2)c(CN2CCCCC2)cc1=O -0.786%
CCn1cc(/C=C(\NC(=O)c2ccc(OC)c(OC)c2)C(=O)NCCCn2ccnc2)c2ccccc21 2.33%
CCOC(=O)c1cc(-c2ccc(OC)cc2)n(CCC(=O)NCCc2ccc(OCC)c(OCC)c2)c1C -0.138%
Cc1ccc(NC(=O)N2CCC(CN3CCCCC3)CC2)c(Cl)c1 2.71%
CC(=O)c1ccc(N2CCN(S(=O)(=O)c3ccc(-c4cnc(C5CC5)o4)cc3)CC2)cc1 0%
Cc1ccc(OCC(=O)Nc2ccc(C(=O)OCc3cc(=O)n4ccsc4n3)cc2)cc1C 0%
Cc1nc2sccn2c(=O)c1S(=O)(=O)Nc1cccc(Cl)c1C -1.8%
Cc1ccc(C2C(=O)N(C3CCCCCC3)CC(=O)N2CCC2=CCCCC2)cc1 (stereo unspecified) 9.9%
Cc1ccc(N2CCN(C(=O)CCS(=O)(=O)c3cc4c(cc3Cl)NC(=O)CO4)CC2)c(C)c1 -17.4%
CC1CCN(c2nc3c(S(=O)(=O)c4cccc(Cl)c4)nnn3c3ccsc23)CC1 -3.93%
COc1cc([N+](=O)[O-])ccc1NC(=O)N1CCC2(CC1)Nc1cc(F)ccc1-n1cccc12 -0.608%
CC(C)(C)OC(=O)N1CCC(c2c(C(=O)N3CCN(c4ncccn4)CC3)cnn2-c2ccc(F)cc2)CC1 0.365%
CCOC(=O)c1c(-c2ccc(OC)cc2)oc2ccc(OCc3ccc(F)cc3F)cc12 -11.3%
Cc1ccccc1Nc1nnc(-c2ccc(C)c(S(=O)(=O)NCC3CCCO3)c2)c2ccccc12 (stereo unspecified) -3.64%
CN(C)c1ccc(CNC(=O)C2CCN(C(=O)c3ccc(-n4ccc5ccccc54)s3)CC2)cc1 -21.7%
CCOC(=O)c1ccc(NC(=O)C(CC)Sc2nncn3c2cc2oc(C)cc23)cc1 (stereo unspecified) -5.53%
Cc1cn2c(=O)cc(COC(=O)c3ccc(NC(=O)c4ccc(C(C)(C)C)cc4)cc3)nc2s1 0%
COc1ccc(C2=Nc3ccccc3N(CC(=O)Nc3cccc(C(C)=O)c3)C(=O)C2)cc1 0%
COc1ccc(CNS(=O)(=O)c2csc(C(N)=O)c2)cc1OC 0%
CCCCNc1nc2c(-c3cccc(Br)c3)nnn2c2ccccc12 -12.8%
CCC1=C(c2ccc(C)cc2)S(=O)(=O)N=C1N1CCC(C(=O)NCCc2cccc(OC)c2)CC1 0.518%
COc1cccc2c1cc1c(=O)n(CC(=O)NCCCN3CCN(C)CC3)nc(C)n12 -6.92%
COc1ccc(OCCCn2c(C)nc3cc(C)c(C)cc32)cc1 -11.1%
O=C1Nc2c(c(=O)[nH]c(=O)n2-c2ccc(F)cc2)C1(NS(=O)(=O)c1ccc(Cl)cc1)C(F)(F)F (stereo unspecified) 1.47%
Cn1nnnc1SCCCNCc1cc(Cl)ccc1OCc1ccccc1 -7.48%
COC(=O)c1ccc(OCC2c3cc(OC)c(OC)cc3CCN2C(=O)Cc2ccc(OC)c(OC)c2)cc1 (stereo unspecified) 7.93%
CC(C)c1nn2c(=O)cc(COC(=O)c3ccc4c(c3)OCO4)nc2s1 3.42%
Cc1cn2c(=O)c(S(=O)(=O)NCCc3ccc(Cl)cc3)c(C)nc2s1 5.79%
COc1cc(C(=O)Nc2nnc(CC(C)(C)C)s2)cc(OC)c1OC -0.108%
CCc1ccc(NC(=O)C2CCCN2S(=O)(=O)c2cccc3nsnc23)cc1 (stereo unspecified) -1.24%
CC(=O)N1CCc2c(sc3c2c(=O)n(-c2ccccc2)c(=O)n3CC(=O)c2ccc(F)cc2)C1 3.17%
CCOc1ccc(C(=O)Nc2ccc(Cl)c(-c3nc4cc(C)cc(C)c4o3)c2)cc1 -18.7%
COc1ccc(-c2nc3sc(CCNC(=O)c4ccc(C(C)(C)C)cc4)c(C)n3n2)cc1 -5.92%
CCOc1ccccc1C(=O)Nc1cc2c(cc1C)n(C)c(=O)c(=O)n2C -4.4%
COc1ccc(CNC(=O)CN(C)S(=O)(=O)c2ccc3[nH]c4c(c3c2)CCCC4)cc1 1.29%
Cn1cc(-c2cc3n(n2)CCC(=O)N3CCCC(=O)NCc2ccccc2)c2ccccc21 1.81%
CCOC(=O)C1CCC(CN(Cc2ccc(OC)cc2)S(=O)(=O)c2ccc(F)c(C(=O)Nc3cc(Cl)ccc3OC)c2)CC1 (stereo unspecified) 4.62%
COc1ccc(NC(=O)Cc2ccc(NC(=O)N3CCCCc4ccccc43)cc2)c(OC)c1 -5.42%
CCN(CC)CCNC(=O)Cn1cnc2sc(C)c(S(=O)(=O)N3CCC(C)CC3)c2c1=O 6.48%
COc1cccc(NC(=O)CN2C(=O)C3(SCC(=O)N3c3cc(C)cc(C)c3)c3ccccc32)c1 (stereo unspecified) 6.54%
Cc1ccc(NC(=O)C2CCN(S(=O)(=O)c3c(C)noc3C)CC2)cc1C 1.56%
Cc1ccc(CN2C(=O)N(c3ccc(C)c(Cl)c3)S(=O)(=O)c3ccccc32)cc1 -0.654%
N#Cc1ccc(NC(=O)COCc2cc(-c3ccc(F)cc3)on2)cc1 1.05%
COC(=O)c1cc2oc(C)cc2n1Cc1ccc(Cl)cc1 8.25%
CCOc1ccc(CNC(=O)c2cnc(SC)nc2C)cc1 -14.1%
CCOC(=O)C1CCN(C(=O)c2nn(-c3ccc(C)cc3)c(=O)n(C)c2=O)CC1 -0.616%
COC(=O)c1c(-c2cccs2)csc1NC(=O)COc1ccc(C(C)C)cc1 -1.45%
CCc1ccc(CNC(=O)c2ccc(CS(=O)(=O)Cc3ccccc3C)o2)cc1 3.63%
